The campaign covered roughly 360,000 compounds. About 25,000 (6.9%) were called active. This list was built around the results that the source calls inconclusive (neither active nor inactive); the mix of calls is not that of the screen. Calls follow the shape of the dose curve; as a rule, active = well fitted inhibition curve with a large enough effect; inconclusive = small, poorly fitted or top-dose-only effect; inactive = flat fitted curve, though single readings scatter. A potency beside an inconclusive call is a rough fit, not a confirmed value.
These compounds were tested against Luciferin 4-monooxygenase (Photinus pyralis) (UniProt P08659) (assay: qHTS profiling assay for firefly luciferase inhibitor/activator using purifed enzyme and Km concentrations of substrates (counterscreen for miR-21 project)). Conditions: purified FLuc, luminescence inhibition; activity change, negative = inhibition: at 57.5 µM (top of the series).
UniProt P08659, sequence (P08659 whole entry, looked up): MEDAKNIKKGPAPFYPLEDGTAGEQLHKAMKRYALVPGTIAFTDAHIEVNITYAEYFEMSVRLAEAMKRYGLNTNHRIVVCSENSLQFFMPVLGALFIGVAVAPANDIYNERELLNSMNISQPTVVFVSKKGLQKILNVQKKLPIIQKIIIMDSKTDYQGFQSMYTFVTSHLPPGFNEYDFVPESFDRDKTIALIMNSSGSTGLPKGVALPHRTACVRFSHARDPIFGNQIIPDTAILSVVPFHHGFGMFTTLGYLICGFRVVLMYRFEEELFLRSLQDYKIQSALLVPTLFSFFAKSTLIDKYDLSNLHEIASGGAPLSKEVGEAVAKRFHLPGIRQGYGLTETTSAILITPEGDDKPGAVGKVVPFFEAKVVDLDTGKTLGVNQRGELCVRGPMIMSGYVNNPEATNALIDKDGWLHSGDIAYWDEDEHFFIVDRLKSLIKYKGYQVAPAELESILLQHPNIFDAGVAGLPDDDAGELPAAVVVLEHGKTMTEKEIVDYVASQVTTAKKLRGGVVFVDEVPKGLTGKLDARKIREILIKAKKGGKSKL
Summary of the method: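 Purified P. pyralis luciferase (10nM final) with 10uM D-luciferin and 10uM ATP (Km levels) in 50mM Tris acetate pH 7.5, 10mM Mg acetate, 0.01% Tween-20, 0.05% BSA; qHTS 6-point titration, ~60 µM downward; luminescence read.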
Also: nearly all actives have a fitted effect of over 55% in size.
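For activity change, negative = inhibition in this document: plate controls were vehicle for no effect and reference inhibitor for full effect.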
Potency is read from the fitted curve at half-maximal effect; tags tell the direction and shape of the fitted curve.

SMILES | activity change, negative = inhibition | Potency
COc1ccc(/C=C/C(=O)Nc2ccc3nc4n(c(=O)c3c2)CCCC4)cc1 | inactive: -11.6% | –
CCCOc1ccc(/C=C2\SC(=S)N(CC3CCCO3)C2=O)cc1 (stereo not given) | – | active: 9.53 µM
O=C(COc1ccccc1Cl)Nc1ccc2nc(SCC(=O)N3CCOCC3)sc2c1 | – | inconclusive: 2.69 µM [inhibitor, partial curve, poor fit]
CN1C(=O)/C(=C/c2ccccc2F)Sc2ccc(C(=O)NCC3CCCO3)cc21 (stereo not given) | – | inconclusive: 30.1 µM [inhibitor, partial curve, poor fit]
CCOC(=O)c1nc(N/N=C/c2ccccc2)sc1Br | – | active: 7.57 µM
O=S(=O)(c1ccc2nc(Nc3ccc(Br)cc3F)ccc2c1)N1CCCCC1 | inactive: -7.5% | –
COc1ccc(N/N=C(C)/C(=N/O)C(=O)Nc2ccccc2)cc1 | – | inconclusive: 26.9 µM [inhibitor, partial curve, poor fit]
O=C(O)c1ccc(/C=C2\SC(=Nc3ccccc3)N(c3ccccc3)C2=O)cc1 | – | inconclusive: 30.1 µM [inhibitor, partial curve, poor fit]
COc1cc(NC(=O)c2ccccc2Cl)c2ncccc2c1 | – | inconclusive: 23.9 µM [inhibitor, partial curve]
COc1ccc(CCNC(=O)c2ccc3c(c2)CCN3S(=O)(=O)c2ccc(C)cc2)cc1OC | inactive: -2.36% | –
O=S(=O)(Nc1cccc(-c2ccc(N3CCOCC3)nn2)c1)c1ccc(F)c(C(F)(F)F)c1 | – | active: 9.53 µM
Cc1ccc(/C=N/NC(=S)Nc2cccc(S(=O)(=O)N(C)C)c2)o1 | – | inconclusive: 26.9 µM [inhibitor, partial curve]
Cc1nc2ccccc2n1CC(O)COc1ccccc1Cl (stereo not given) | – | inconclusive: 33.8 µM [inhibitor, single point]
COc1ccc(CN=C(Nc2ccccc2)SC2CC(=O)NC2=O)cc1 (stereo not given) | – | active: 6.75 µM
CC(C)c1ccc2[nH]c3nc(SCC(=O)N4CCOCC4)nnc3c2c1 | – | active: 6.75 µM
COc1ccc(Nc2cc(C(=O)NCc3ccco3)c3ccccc3n2)c(OC)c1 | – | active: 15.1 µM
O=C(NCCc1csc(-c2ccccc2)n1)c1ccco1 | – | inconclusive: 37.9 µM [inhibitor, partial curve, poor fit]
COc1cccc(C(=O)Nc2nc(C)cs2)c1 | – | active: 6.75 µM
COCCN(CC1CCCN(C2Cc3ccccc3C2)C1)C(=O)c1cccs1 (stereo not given) | – | inconclusive: 23.9 µM [inhibitor, partial curve, poor fit]
Cc1c(NC(=O)COc2ccc(C(C)C)cc2)c(=O)n(-c2ccccc2)n1C | inactive: -0.615% | –
CCC1(c2ccccc2)NC(=O)N(CC(=O)Nc2cc(S(=O)(=O)N3CCCCCC3)ccc2OC)C1=O (stereo not given) | inactive: 8.37% | –
Cc1ccc(-c2nn(-c3ccccc3)cc2C(=O)Nc2cccc(S(=O)(=O)N3CCOCC3)c2)cc1 | inactive: -3.14% | –
COc1ccc(Cl)cc1NC(=O)CN(C)C(=O)c1cn(-c2ccccc2)nc1-c1cccnc1 | inactive: -3.44% | –
CCCc1nn(C)c(C(=O)Nc2ccc(C(C)(C)C)cc2)c1Cl | – | inconclusive: 16.9 µM [inhibitor, partial curve]
Cn1c(CN2CCCC2)nc2cc(NC(=O)c3ccco3)ccc21 | – | inconclusive: 23.9 µM [inhibitor, single point]

SMILES | activity change, negative = inhibition | Potency
CC(=O)NC(=S)Nc1cc(C(=O)O)ccc1Cl | – | inconclusive: 19 µM [inhibitor, partial curve, poor fit]
Cc1c(Cl)cccc1Nc1ccccc1C(=O)O | – | active: 16.9 µM
CCn1c(C)nc2cc(C(=O)OC(C(F)(F)C(F)F)C(F)(F)C(F)F)ccc21 | – | active: 3.79 µM
Brc1c(CSc2nc3ccccc3o2)nc2ncccn12 | – | active: 15.1 µM
CCCCCCCNC(=O)C1(CC2CC(c3ccccc3)=NO2)CCN(C(=O)OC(C)(C)C)CC1 (stereo not given) | – | inconclusive: 21.3 µM [inhibitor, partial curve]
Cn1cc(-c2nc3ccccc3[nH]2)c2ccccc21 | – | active: 4.26 µM
CCOC(=O)c1sc(NC(=O)c2ccc(CC)s2)nc1C | – | inconclusive: 1.51 µM [inhibitor, full curve]
O=C(N/N=C/c1ccccn1)c1cccc(S(=O)(=O)Nc2ccccc2Cl)c1 | – | inconclusive: 37.9 µM [inhibitor, single point]
O=C(NNc1nc(=O)c2cccnc2s1)c1ccccc1O | – | inconclusive: 16.9 µM [inhibitor, partial curve]
O=C(O)CC(NC(=O)C12CC3CC(CC(C3)C1)C2)c1ccc(OC2CCCC2)cc1 (stereo not given) | – | inconclusive: 33.8 µM [inhibitor, partial curve, poor fit]
CCOC(=O)Cn1ccc(NC(=O)COc2ccc(F)cc2F)n1 | – | inconclusive: 26.9 µM [inhibitor, partial curve, poor fit]
COc1ccc(C(=O)NCc2ccc3c(c2)CCN3C(=O)c2ccc(Cl)cc2)c(OC)c1 | – | inconclusive: 30.1 µM [inhibitor, partial curve, poor fit]
Cc1ccc(-c2cc(C(=O)NCCN3CCOCC3)no2)cc1 | – | inconclusive: 37.9 µM [inhibitor, partial curve, poor fit]
COc1cc(/C=C2\C(=N)N3N=C(S(C)(=O)=O)SC3=NC2=O)ccc1OC(=O)c1cccs1 | – | active: 21.3 µM
O=C(NC1CCCCCCC1)c1ccccc1O | – | active: 15.1 µM
Cc1cc2cc3c(cc2nc1SCc1ccccn1)OCCO3 | – | inconclusive: 23.9 µM [inhibitor, single point]
O=C(NC12CC3CC(CC(C3)C1)C2)c1ccc([N+](=O)[O-])o1 | – | inconclusive: 37.9 µM [inhibitor, partial curve, poor fit]
O=C1Nc2ccccc2/C1=N\N=C\c1ccc(O)c(O)c1 | – | active: 23.9 µM
Cc1cccc(CCNC(=O)CCc2c(C)nc3c(c(C)nn3-c3ccccc3)c2C)c1 | inactive: -17.2% | –
COc1ccc2c(c1)CC(C(=O)Nc1cc(OC)c(OC)c(OC)c1)CO2 (stereo not given) | inactive: -7.14% | –
CCC(C)NC(=O)Cn1c(COc2ccc(Cl)cc2Cl)nc2ccccc21 (stereo not given) | – | active: 6.01 µM
COCC(=O)Nc1nc2ccccc2s1 | – | inconclusive: 21.3 µM [inhibitor, single point]
CO/N=C/C(=N\Nc1cc(OC)cc(OC)c1)C(=O)c1ccccc1 | inactive: 5.04% | –
COC(=O)c1ccccc1NC(=O)CN1CCC(NC(=O)c2ccc(C)cc2)CC1 | inactive: -19.7% | –
CN(C)c1ccc2nc3c(=O)[nH]c(=O)nc-3n(CC(O)C(O)C(O)CO)c2c1 (stereo not given) | – | inconclusive: 37.9 µM [inhibitor, partial curve, poor fit]

SMILES | activity change, negative = inhibition | Potency
CCC/C=N/Nc1nc2ccccc2s1 | – | active: 3.38 µM
CCOc1ccc2nc(NC(=O)CSc3ccc(Cl)cc3)sc2c1 | – | inconclusive: 21.3 µM [inhibitor, partial curve]
CCc1nnc(NC(=O)c2nc3nccc(C)n3n2)s1 | inactive: 1.07% | –
O=S(=O)(Nc1cccc(-c2nnco2)c1)c1ccc(Cl)cc1 | inactive: -0.946% | –
COc1ccc(N2CCN(C(=S)NCc3ccccc3)CC2)cc1 | inactive: -1.41% | –
CN1CCN(NC(=O)c2ccc(Br)s2)CC1 | inactive: -2.28% | –
C#CCN(C(=O)c1ccc(OC2CCN(Cc3ccccn3)CC2)cc1)C1CCCCC1 | inactive: 0.954% | –
O=C(Nc1ccc2ncccc2c1)c1cccc(Br)c1 | – | active: 10.7 µM
OCC1(Cc2ccc(F)cc2)CCCN(CCCC(F)(F)F)C1 (stereo not given) | inactive: -5.3% | –
CCOCCCNC(=S)N1CCN(c2nc(-c3ccc(F)cc3)cs2)CC1 | – | inconclusive: 21.3 µM [inhibitor, single point]
CCOc1ccc(CNC(=O)Nc2ccccc2)cc1 | – | inconclusive: 23.9 µM [inhibitor, single point]
COc1ccc(NC(=O)CCc2c(C)nc3cc(-c4cccc(F)c4)nn3c2C)cc1Cl | – | inconclusive: 13.5 µM [inhibitor, partial curve, poor fit]
Cc1ccc(-n2cc(CNC(C)c3cnn(C)c3)c(-c3ccc(F)cc3)n2)cc1 (stereo not given) | – | inconclusive: 26.9 µM [inhibitor, single point]
CCCCCc1nnc(NC(=O)c2ccc(N3CCCC3=O)cc2)s1 | inactive: -2.39% | –
COc1cccc(C2=NN(C(=O)c3cccs3)C(O)(C(F)(F)F)C2)c1 (stereo not given) | – | inconclusive: 37.9 µM [inhibitor, single point]
O=C(Nc1ccc(C(=O)OC2CCCCC2)cc1)c1ccncc1 | – | inconclusive: 16.9 µM [inhibitor, partial curve]
COc1ccc(C2CC(c3cccs3)=NN2S(C)(=O)=O)cc1 (stereo not given) | – | inconclusive: 37.9 µM [inhibitor, partial curve, poor fit]
COc1ccccc1N1CCN(C(=O)CCCn2nc(C)c([N+](=O)[O-])c2C)CC1 | inactive: 0.957% | –
Oc1ccc2ccccc2c1/C=N/Nc1ccccc1 | – | active: 6.01 µM
N#CCSc1ccc2nc(-c3ccccc3)cn2n1 | – | active: 7.57 µM
CCOC(=O)c1c(C)[nH]c(C)c1S(=O)(=O)N(C)CC(=O)Nc1ccc(C)c(F)c1 | inactive: -2.83% | –
CC(=O)Nc1ccc2nc(SCCOc3ccccc3Cl)sc2c1 | – | inconclusive: 19 µM [inhibitor, partial curve]
O=C(Nc1ccc(Cl)cc1)OCCn1nnnc1C(c1ccccc1Cl)N1CCOCC1 (stereo not given) | – | inconclusive: 30.1 µM [inhibitor, single point]
N#CC1=C(S)N(c2ccc(F)cc2)C2(CCCCC2)NC1=O | – | inconclusive: 37.9 µM [inhibitor, single point]
COc1ccccc1NC(=O)c1nn(-c2ccccc2)ccc1=O | – | inconclusive: 16.9 µM [inhibitor, partial curve]

Reference: PubChem BioAssay AID588342 (National Center for Advancing Translational Sciences (NCATS), 2011)
